Measured values as given in PubChem BioAssay (NCATS).
Inconclusive results, whose numbers are uncertain, are shown with a selection of clear calls. Potencies of inconclusive entries are left out as doubtful fits. Calls of active or inactive are those of the source. Calls follow the shape of the dose curve; as a rule, active = well fitted inhibition curve with a large enough effect; inconclusive = small, poorly fitted or top-dose-only effect; inactive = no such curve, though single readings can be large or run the other way.

biological target: Retinal dehydrogenase 2 (Homo sapiens) (UniProt O94788); assay: qHTS for Inhibitors of the Aldehyde Dehydrogenase Family (ALDH1A2) Confirmation screens (AID 2061314); details: ALDH1A2 enzyme inhibition qHTS confirmation; activity, negative = inhibition: at 45.9 µM (top of the series) unless noted; series mostly up to 45.9 µM; also: nearly all actives have a fitted effect of over 65% in size
% is scaled to controls: 0 for no effect and ±100 for the full control effect; potency is read from the fitted curve at half-maximal effect; tags tell the direction and shape of the fitted curve.

Compound | Potency | activity, negative = inhibition | outcome
CN(CCCOc1ccc(Cc2ccccc2)cc1)CCC(=O)O | inconclusive [inhibitor, partial curve] | – | –
COc1cc(N2C(=O)c3ccccc3C2=O)c2ncccc2c1 | inconclusive [inhibitor, partial curve, poor fit] | – | –
O=C(NC1CCCc2c1cnn2-c1ccc(F)cc1F)c1ccccn1 (centres undefined) | – | inactive: 0.735% | –
O=C(C1CCN(c2nc(-c3ccc(Br)cc3)cs2)CC1)N1CCOCC1 | – | inactive: -20% | –
N#Cc1c(-c2cccc(Br)c2)no[n+]1[O-] | active: 3.57 µM | – | –
CC(C)c1ccc(S(=O)(=O)c2cnc(SCC(=O)Nc3ccc4c(c3)OCCO4)[nH]c2=O)cc1 | active: 10.1 µM | – | –
O=C(O)c1ccccc1SC1=NS(=O)(=O)c2ccccc21 | – | – | inactive
Oc1ccc(CC2NCCc3cc(O)c(O)cc32)cc1 (centres undefined) | – | inactive: -18.7% | –
O=C(Nc1cncc(-c2cccc3ccccc23)c1)c1cccs1 | inconclusive [inhibitor, full curve] | – | –
CCOC(=O)[C@H](CCc1ccccc1)N[C@@H](C)C(=O)N1C(=O)N(C)C[C@H]1C(=O)O | – | inactive: 3.18% | –
COc1ccc(C2Nc3ccccc3C(=O)N2Cc2ccco2)cc1COc1ccccc1 (centres undefined) | inconclusive [inhibitor, partial curve, poor fit] | – | –
O=C(Cn1nc(-c2ccc(F)cc2)ccc1=O)NCCc1ccccc1 | inconclusive [inhibitor, full curve, poor fit] | – | –
CN(C)c1cccc(Oc2cnc(Nc3cccc(O)c3)nc2)c1 | inconclusive [inhibitor, partial curve] | – | –
COc1ccc(NC(=O)c2ccc(-c3ccc(C(=N)N)cc3C)cc2)cc1N1CCN(C)CC1 | inconclusive [inhibitor, partial curve] | – | –
COc1ccc(-c2c(-c3cc(C(=O)O)ccn3)ncn2C)cc1 | active: 28.3 µM | – | –
Nc1cccc(CNC(=O)c2ccc(Oc3ccc(OCc4cccc(F)c4)cc3)nc2)c1 | – | – | inactive
CCN(CC)CCNC(=O)c1ccc(N)cc1 | – | inactive: 1.21% | –
CN[C@@H]1[C@H](O[C@H]2[C@H](O[C@@H]3[C@@H](O)[C@H](O)[C@@H](N=C(N)N)[C@H](O)[C@H]3N=C(N)N)O[C@@H](C)[C@]2(O)C=O)O[C@@H](CO)[C@H](O)[C@H]1O | – | inactive: 0.786% | –
COc1cccc(-c2ccc(NC(=O)C3=C(C(=O)O)CCC3)c(F)c2)c1 | inconclusive [inhibitor, partial curve] | – | –
Brc1ccc([C@H]2CN3CCSC3=N2)cc1 | – | inactive: -19.9% | –
O=C(CN1C(=O)N/C(=C\c2cccn2-c2cccc(C(=O)O)c2)C1=O)Nc1ccc(F)cc1 | – | inactive: -23.7% | –
COc1ccccc1Nc1cc2ccccc2c(=O)[nH]1 | – | – | inactive
CCCN(CCN1CCN(c2ccccc2OC)CC1)C1CCc2ncsc2C1 (centres undefined) | – | inactive: -4.91% | –
C=C(C)C(=O)O[C@H]1[C@H]2C(=C)C(=O)O[C@@H]2/C=C(\CO)CC/C=C(/C=O)[C@@H]1O | – | inactive: -26.8% [at 25.6 µM] | –
